The record followed here is ChEMBL document CHEMBL4888484, “Replenishing the malaria drug discovery pipeline: Screening and hit evaluation of the MMV Hit Generation Library 1 (HGL1) against asexual blood stage Plasmodium falciparum ,using a nano luciferase reporter read-out” (2022).

Structures are written as SMILES. Hit rate of the full screen: of about 150,000 compounds, about 540 (0.36%) showed an effect of 50% or more. Some of the results follow.

The test system of the experiment is Plasmodium falciparum. The experiment is described as follows: Primary screen in NF54 nanoGlo assay, in single point, at 2uM, 72h; a lower Z score goes with more inhibition. Type of experiment: functional, Erythrocyte. The conditions noted are these: timepoint 72 hour.
In the case of `N#CC1(NS(=O)(=O)Cc2ccc(OC(F)(F)F)cc2)CC1`, the % Inhibition – broadly, the drop in the measured response relative to a control, in per cent – is reported as -17% and the Z score was 1.78.
The like results for `CN(C)c1cccc(C(=O)Nc2cccc(-c3noc(C4CCCC4)n3)c2)c1` were, in that order, -18% and 3.1.
`O=C(Nc1ccccc1)N1CC[C@H]2COC(=O)N2c2ccccc2C1`: the “% Inhibition” value is recorded as 27% and the Z score is listed as -3.1.
The corresponding values for `Cc1ccccc1[C@H](C(=O)N(C/C=C/c1ccccc1)CCO)N(C)C` are -3% and 0.36.
The like results for `COc1ccc(NC(=O)c2c(C)nn(-c3ccccc3)c2C)cn1` were, in that order, 6% and -1.12.
Consider `O=C(NCc1cnoc1-c1ccc(F)cc1)c1ccccc1`, for which the “% Inhibition” value was -1% and the Z score is 0.09.
Take `COc1cccc(CCNS(=O)(=O)c2ccnn2C)n1`: the “% Inhibition” value was -4% and the Z score is 0.68.
The like results for `CCOC(=O)Nc1sc(C)cc1C(N)=O` were, in that order, 1% and -0.12.
Turning to `c1ccc2oc(-c3noc([C@@H]4CCCN4C4CCOCC4)n3)cc2c1`, the “% Inhibition” value is recorded as -16% and the Z score is listed as 1.68.
The corresponding values for `Cn1cc(-c2cc(F)cc3cccnc23)c(C(=O)O)n1` are -18% and 1.67.
Consider `CCn1nncc1CN1C(=O)N[C@](C)(c2ccc(Cl)c(Cl)c2)C1=O`, for which the “% Inhibition” value is reported as 0% and the Z score was -0.01.
The corresponding values for `Cc1ccc2c(c1)c(C)c(C)n2C[C@@H](O)CNCc1ccccc1` are 35% and -3.93.
The corresponding values for `CC(=O)N(C)Cc1cc(C2=CCCN(Cc3c(C)noc3C)C2)no1` are -11% and 1.34.
The like results for `Cc1ccc(-c2nc(-c3ccncc3)nn2C)s1` were, in that order, -5% and 1.04.
For the compound `CC1CCCN(C(=O)C2CCCCCC2)C1CN` (configuration not stated), the “% Inhibition” value was -2% and the Z score turned out to be 0.24.
The like results for `CCCCn1nc(C2CC2)nc1C1(c2ccccc2)CC1` were, in that order, -1% and 0.12.
The corresponding values for `Cc1nc2c([nH]1)CN(C(=O)c1cn(C)c3ccccc13)CC2` are -5% and 0.86.
The like results for `Cc1cccc(NC(=O)N2CCC(n3cc(-c4ccccc4)nn3)CC2)c1C` were, in that order, 12% and -1.57.
For the compound `CC(C)Nc1ncc(C(=O)N2CCc3c(Cl)cccc3C2)cn1`, the “% Inhibition” value is -5% and the Z score was 1.08.
Take `COc1ccc(CNC(=O)Cn2ccnc2-c2ccnc(N3CCC(C)CC3)c2)cc1`: the “% Inhibition” value is 1% and the Z score was -0.13.
For `COc1ccc(C(=O)N[C@H](C(=O)NC(C)(C)C)C(C)C)cc1`, the “% Inhibition” value is -8% and the Z score stood at 1.32.
For the compound `CCOC(=O)c1ccc2nc(C)cc(Nc3ccc(Cl)cc3C)c2c1`, the “% Inhibition” value came to 19% and the Z score is reported as -1.72.
The like results for `COC1(c2noc(-c3cc4c(s3)CCOC4)n2)CCCCC1` were, in that order, -7% and 1.21.
As for `C[C@H](NC(=O)c1ccncc1O)c1noc(Cc2ccccc2)n1`, the “% Inhibition” value was -2% and the Z score is listed as 0.24.
The like results for `Cc1ccc(N[C@H]2C[C@@H](C)Nc3ccc(C)cc32)cc1` were, in that order, -3% and 0.62.
The like results for `Cc1cc(-c2nc(CS(=O)(=O)NC3CC3)no2)n[nH]1` were, in that order, -5% and 0.76.
`Clc1ccc(CNc2nc(-c3cccs3)n[nH]2)cc1`: the “% Inhibition” value is listed as -40% and the Z score was 4.7.
Consider `O=C(NCc1cccnc1N1CCOCC1)c1cccs1`, for which the “% Inhibition” value is on record as 4% and the Z score is -0.48.
On to `COc1cc(F)c(F)cc1NC(=O)NCCO[C@@H]1CCCCO1`, for which the “% Inhibition” value is recorded as -1% and the Z score stood at 0.12.
The like results for `CCc1cccc(NC(=O)Cn2cnc3nc(N4CCOCC4)sc3c2=O)c1` were, in that order, -11% and 1.79.
With `Oc1c([C@@H](c2ccccn2)N2CCCC2)ccc2cccnc12`, the “% Inhibition” value is listed as 36% and the Z score is listed as -6.9.
The like results for `CCc1ccc(C(=O)N2C[C@H]3COCC[C@@]3(O)[C@@H]3COCC[C@@H]32)[nH]1` were, in that order, -5% and 0.75.
The corresponding values for `CC(C)(C)c1ccc(C(=O)N2CCC([C@H]3CCNC3)CC2)nc1` are -8% and 1.13.
With `CCc1cnc(N2CCN(C(=O)c3ccnc(C4CC4)n3)CC2)s1`, the “% Inhibition” value is -6% and the Z score was found to be 0.75.
The corresponding values for `CCCCNCc1cccn1-c1ccccc1` are -3% and 0.37.
The like results for `Cc1cc(CN[C@@H](C)c2ccc3c(c2)OCCO3)c(C)n1-c1ccnn1C(C)C` were, in that order, 12% and -1.46.
`COc1cc2ncc3c(-c4ccccc4)n[nH]c3c2cc1OC`: the “% Inhibition” value stood at 9% and the Z score is on record as -0.99.
The corresponding values for `COCc1ccc([C@@H]2CCCN2Cc2cnns2)o1` are -7% and 1.19.
For the compound `Cc1ccc2[nH]c(CCNC(=O)[C@H]3CCCN(C(=O)N(C)C)C3)nc2c1`, the “% Inhibition” value is reported as -1% and the Z score was determined as 0.19.
The corresponding values for `CC(=O)N1CC2(CCN(c3cc(C)nc4ccccc34)CC2)C[C@H]1C(=O)O` are -3% and 0.49.
`Cn1cc(CNC(=O)c2cccc(S(=O)(=O)N3CCCOCC3)c2)cn1`: the “% Inhibition” value was determined as 10% and the Z score is listed as -2.02.
`O=C(C[C@H]1CNCCO1)Nc1ccc(Oc2ccccc2)cc1`: the “% Inhibition” value was -16% and the Z score was found to be 1.43.
The like results for `Cn1cc(CNC(=O)NCCC(=O)Nc2ccccc2)cn1` were, in that order, 0% and -0.09.
The like results for `OCc1cc(-c2cc3ccccc3s2)ccn1` were, in that order, -16% and 2.32.
Regarding `Cc1ccc2oc(CN(Cc3cc(F)ccc3F)C(=O)c3cccc(F)c3F)nc2c1`, the “% Inhibition” value is recorded as -11% and the Z score is 1.1.
Consider `O=C(c1cccc(Cl)c1)N(CCc1cccs1)C1CCOCC1`, for which the “% Inhibition” value is -8% and the Z score is given as 1.28.
For `COc1c(C)cnc(Cn2cc(-c3nnco3)ccc2=O)c1C`, the “% Inhibition” value is on record as -30% and the Z score came to 3.07.
For the compound `CC(C)c1ccc([C@@H](C)CC(=O)Nc2ccc[n+]([O-])c2)cc1`, the “% Inhibition” value is on record as -5% and the Z score was determined as 0.74.
The like results for `CCCOc1ccc(-c2csc(NC(=O)c3occc3CS(=O)(=O)c3ccccc3)n2)cc1` were, in that order, -5% and 0.76.
The corresponding values for `CN1CC2(C[C@H]1c1nc(-c3ccccc3)no1)CN(C(=O)c1ccncn1)C2` are -18% and 2.11.
Regarding `Cc1ccc(-n2[nH]c(C(=O)N3CCc4ccnc(O)c4C3)cc2=O)cc1`, the “% Inhibition” value was 8% and the Z score was -0.85.
`CN(Cc1cc(-c2ccccc2)n[nH]1)c1cc(C2CC(O)C2)nc(N)n1` (configuration not stated): the “% Inhibition” value was determined as 7% and the Z score was -1.1.
For the compound `O=C(c1ccn2nnnc2c1)N(CCO)Cc1nccs1`, the “% Inhibition” value came out at 1% and the Z score is listed as -0.17.
As for `Cc1cc(C)n(NC(=O)c2cnc(C(C)C)nc2C)c(=O)c1`, the “% Inhibition” value is recorded as -11% and the Z score was 1.58.
The like results for `COc1ccc2c(c1)N(S(=O)(=O)c1cnnn1C)CCC2` were, in that order, -7% and 0.72.
Regarding `CCc1cc(-c2cccc(C(N)=O)c2)nc(N(C)C)n1`, the “% Inhibition” value is listed as -6% and the Z score was 1.17.
The like results for `Nc1c(-c2ccccc2)nsc1C(=O)NCc1ccc(F)cc1` were, in that order, 37% and -4.77.
In the case of `O=C(O)C[C@H]1CCCCN1Cc1ccc2cc(Cl)ccc2n1`, the “% Inhibition” value is on record as -1% and the Z score amounted to 0.27.
As to `O=C(NCC1(c2ccccc2)CC1)N1CCC[C@H]1c1ccncc1`, the “% Inhibition” value is recorded as -7% and the Z score came to 1.3.
The corresponding values for `C[C@H](c1ccccc1)c1nc(-c2ccc(=O)[nH]c2)no1` are -3% and 0.52.
The like results for `CCc1nc(C(=O)N(C)C2CCC(CC)CC2)co1` (configuration not stated) were, in that order, -8% and 1.17.
The corresponding values for `COc1ccc(-c2nnc(NC(=O)c3ccc(Oc4ccccc4)cc3)o2)cc1` are 4% and -0.7.
On to `O=c1ccc(S(=O)(=O)N2CCCCCC2)cn1Cc1ccc(Cl)cc1`, for which the “% Inhibition” value is on record as -9% and the Z score is on record as 1.85.
The like results for `Cc1c(Cl)cccc1-n1ccnc(NC(=O)NCCc2ccccc2)c1=O` were, in that order, -11% and 1.46.
For the compound `C[C@H](NC(=O)CN1CCC2(CCC(=O)N(C3CC3)C2)CC1)c1ccccc1`, the “% Inhibition” value is -1% and the Z score was determined as 0.18.
The like results for `CCOc1ccc(-c2c(C)nn3c(O)c(NCCc4c[nH]c5ccccc45)c(C)nc23)cc1OCC` were, in that order, -3% and 0.5.
The like results for `O=S(=O)(Cc1ccccc1F)N1CC[C@H](Oc2cnsn2)C1` were, in that order, -10% and 1.84.
In the case of `Cc1cc(NC(=O)c2ccco2)nnc1C`, the “% Inhibition” value is recorded as 5% and the Z score is -0.8.
For the compound `c1ccc(-c2cn3c(n2)c(-c2ccc4ccccc4n2)cc2ccccc23)cc1`, the “% Inhibition” value stood at 76% and the Z score is listed as -4.16.
Regarding `Cc1ccccc1CNc1nnc(-c2ccc(S(C)(=O)=O)cc2)o1`, the “% Inhibition” value is on record as -17% and the Z score came out at 1.7.
For the compound `Cc1nc2c(c(N3CCC(Oc4ccccc4C)CC3)n1)CNC2`, the “% Inhibition” value was -2% and the Z score is listed as 0.28.
The like results for `O=C(c1c[nH]c(C(F)(F)F)c1)N1CC[C@H](Nc2ncccn2)C1` were, in that order, 5% and -0.72.
The corresponding values for `C[C@H]1[C@@H](N)CCCN1C(=O)[C@H]1C[C@@H]1c1ccccc1C(F)(F)F` are -3% and 0.28.
The corresponding values for `CCS(=O)(=O)N[C@@H](C)c1ccccc1Br` are -12% and 2.64.
In the case of `C[C@H]1CCCCN1C(=O)Nc1ccc2sncc2c1`, the “% Inhibition” value is recorded as -9% and the Z score is 0.93.
The corresponding values for `N#Cc1cccc(OCc2cccc(C(=O)N3CCC[C@H](O)C3)c2)c1` are -12% and 1.91.
Turning to `COc1n[nH]c(NC(=O)[C@H]2C[C@@H]2c2ccccc2Cl)c1C#N`, the “% Inhibition” value is on record as -7% and the Z score amounted to 1.16.
The like results for `COC1CCN(Cc2cn(Cc3ccn(-c4ccccc4)n3)nn2)CC1` were, in that order, -13% and 2.41.
Regarding `O=C(N[C@H]1CCN(Cc2noc(-c3ccccc3)n2)C1)c1ccn[nH]1`, the “% Inhibition” value is on record as -16% and the Z score is 1.77.
The corresponding values for `Cc1nocc1NC(=O)CC1CC2CCC1C2` (configuration not stated) are -11% and 1.54.
For the compound `C[C@H]1CN(Cc2ccccc2)Cc2c1nc(N)c(C#N)c2-c1ccco1`, the “% Inhibition” value came to 2% and the Z score is given as -0.29.
Consider `C[C@](O)(CNC(=O)Nc1ccccc1)c1ccc(-c2ccccc2)cc1`, for which the “% Inhibition” value is -5% and the Z score stood at 0.81.
Turning to `CC[C@@](C)(COc1ncccc1Cl)NC(=O)CCc1nc2c([nH]1)c(=O)[nH]c(=O)n2C`, the “% Inhibition” value is -4% and the Z score turned out to be 0.54.
The corresponding values for `Cc1ccn(-c2cc(COC(=O)c3cccnc3)ccn2)n1` are 10% and -1.37.
As to `COC1(C(F)(F)F)CN(C(=O)NC2CCC3(CC2)COC3)C1`, the “% Inhibition” value is given as -1% and the Z score is 0.11.
The corresponding values for `c1ccc(C(NCc2nnc(-c3ccco3)o2)c2ccccc2)cc1` are -2% and 0.47.
